# Sequences with one replicate were seen in a single cluster, so their values are uncertain.
# System: ATP
# Assay: switch fluorescence ratio, 500 uM ATP over buffer (Cy3 cluster intensity, sum of 5 cycles each) (fold (ratio)); higher = stronger signal-on switching upon ATP binding; sequences stand for … in TCGTCGGCAGCGTCAGATGTGTATAAGAGACAGTTTTTTTTTTTTTTTTTTTTTTTTT…TC
# Conditions: aptamer strand: ATP DNA aptamer (quencher-CACCTGGGGGAGTATTGCGGAGGAAGG + anchor), 100 nM annealed; ATP concentration: 500 uM; one replicate
# Procedure, shortened: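 The fluorescence ratio divides summed target-cycle Cy3 intensity by summed buffer-cycle Cy3 intensity for each cluster and is averaged per switch-domain sequence. Cy3-labelled switching-strand clusters on a modified Illumina MiSeq flow-cell were annealed to 100 nM quencher-labelled ATP aptamer, then imaged in selection buffer and again after 15 min with 500 uM ATP at 22 °C. Five such cycles were run, with NaOH stripping and re-annealing between them, and clusters outside 100-1000 RFU were excluded.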
# 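Note: ATP exposure 15 min at 22 °C before imaging.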
row,Sequence,switch fluorescence ratio
1,TCCTCACATT,1.34
2,TCCTCATCGG,1.08
3,TCCTCGCTCA,1.14
4,TCCTCTACAG,1.55
5,TCCTCTCGGA,1.41
6,TCCTCTGGGG,1.17
7,TCCTGATTAA,0.983
8,TCCTGCACG,1.95
9,TCCTGCTTCC,1.88
10,TCCTGGCCA,1
11,TCCTGGGAGA,1
12,TCCTGGGCAT,2.92
13,TCCTGTAAGC,1.06
14,TCCTGTCGCG,1.21
15,TCCTGTGTGG,0.977
16,TCCTTCGAAG,1.25
17,TCCTTCGAAT,1.16
18,TCCTTTAGGG,1.03
19,TCCTTTGCTG,1.1
20,TCCTTTTAAG,1.04
21,TCGAAAGAG,0.999
22,TCGAAATATG,1.01
23,TCGAAATGTC,1.16
24,TCGAAGAGGG,0.973
25,TCGAAGCATG,3.09
26,TCGAAGGAT,1

row,Sequence,switch fluorescence ratio
1,TCGAATAACG,0.989
2,TCGAATGAGG,1.03
3,TCGACACCGC,1.34
4,TCGACAGGGA,1.06
5,TCGACGCTCT,1.95
6,TCGACTCAGC,1.18
7,TCGACTCATT,1.11
8,TCGAGAATTT,0.993
9,TCGAGCATAA,3.25
10,TCGAGCTTTT,0.995
11,TCGAGGGGT,1.04
12,TCGAGGGT,0.993
13,TCGAGGTACG,0.96
14,TCGAGTCCAT,0.97
15,TCGAGTCGAT,0.996
16,TCGATACCTT,1.12
17,TCGATCGTTA,1.01
18,TCGATCTGAG,1.01
19,TCGATGACCC,1.06
20,TCGATGACGA,1.05
21,TCGATGGGAC,1.04
22,TCGATGGTGC,0.974
23,TCGATTAAGG,1
24,TCGATTCCGT,1.01
25,TCGCAGGGG,1.1
26,TCGCATCATA,1.21

row,Sequence,switch fluorescence ratio
1,TCGCATGGGT,1
2,TCGCATTAAG,2.87
3,TCGCCCAAAT,1.17
4,TCGCCCTCGC,1.12
5,TCGCCCTGTA,1.02
6,TCGCCTGGCT,1.01
7,TCGCGAATCC,1.14
8,TCGCGCCCAC,1.49
9,TCGCGCTGTT,1.03
10,TCGCGGCAGG,1.03
11,TCGCGGCCGG,0.962
12,TCGCGGGTTT,0.997
13,TCGCGTGCCT,0.941
14,TCGCGTTTTA,1.01
15,TCGCTAAACA,1.02
16,TCGCTAGATT,1.02
17,TCGCTAGGCG,0.979
18,TCGCTGATGT,1
19,TCGCTGGAGA,1.06
20,TCGCTGTGTT,0.975
21,TCGCTTTGAC,2.01
22,TCGGAAGTGG,1.07
23,TCGGACGTAT,1.09
24,TCGGAGAAC,1.06
25,TCGGAGCCGC,1.13
26,TCGGAGCTCA,1.72

row,Sequence,switch fluorescence ratio
1,TCGGCATGT,0.994
2,TCGGCCAGGG,1.08
3,TCGGCCCATA,1.08
4,TCGGCCTAGC,1.07
5,TCGGCGCAC,3.04
6,TCGGCGCTCT,1.06
7,TCGGGAAGGC,1.1
8,TCGGGCCAGA,0.969
9,TCGGGCGAAA,1
10,TCGGGCTTAC,1.77
11,TCGGGGACGG,0.955
12,TCGGGGAGGT,0.953
13,TCGGGGCGCC,1.03
14,TCGGGGGAT,1.01
15,TCGGGGGATC,0.989
16,TCGGGGGCAA,1.05
17,TCGGGGGCC,1.01
18,TCGGGGTCGC,0.938
19,TCGGGGTTC,0.997
20,TCGGGTCAAT,1.18
21,TCGGGTCTCC,0.979
22,TCGGGTTGTC,0.915
23,TCGGTAAGGC,1.13
24,TCGGTACAAT,1.06
25,TCGGTAGAGC,1.02
26,TCGGTAGTCG,1.04

row,Sequence,switch fluorescence ratio
1,TCGGTCCATT,0.984
2,TCGGTCGAGA,1.02
3,TCGGTCGCAT,1.03
4,TCGGTCTTGA,0.969
5,TCGGTTGGCC,0.981
6,TCGGTTGGCG,1.13
7,TCGGTTGGGG,1
8,TCGGTTGTTT,1.04
9,TCGGTTTATT,1.08
10,TCGGTTTCCC,1.03
11,TCGGTTTTTC,0.975
12,TCGTACATCA,1.06
13,TCGTACCGTG,1.02
14,TCGTATAGTA,1.02
15,TCGTCAAAGC,1.14
16,TCGTCACACC,1.07
17,TCGTCAGG,1
18,TCGTCCCAGG,2.81
19,TCGTCCGTTT,1.16
20,TCGTCCTTAA,1.1
21,TCGTCGAC,0.984
22,TCGTCTCCTT,1.05
23,TCGTCTTTTA,0.999
24,TCGTGAAGGC,1.05
25,TCGTGATGAG,0.999
26,TCGTGCATAT,1.08

row,Sequence,switch fluorescence ratio
1,TCGTGCTGAT,0.98
2,TCGTGCTGTA,0.972
3,TCGTGGCAAC,1.07
4,TCGTGTTCT,0.986
5,TCGTTAATCG,0.994
6,TCGTTAGCAG,2.43
7,TCGTTAGGGT,0.958
8,TCGTTCAAGG,1.01
9,TCGTTCCTTA,0.97
10,TCGTTGCGGC,0.889
11,TCTAAAAACC,0.97
12,TCTAAAACGT,1.02
13,TCTAAGCACA,1.24
14,TCTAAGCGTA,1
15,TCTAATCGGT,0.96
16,TCTAATTGGC,1.08
17,TCTACCAATG,1.2
18,TCTAGATTGA,1
19,TCTAGCAGAG,1.01
20,TCTAGGCTGA,1.02
21,TCTAGGTGCT,1.06
22,TCTAGTAGAA,1.03
23,TCTAGTCAG,1.03
24,TCTAGTTCTG,1.02
25,TCTATAACTT,1
26,TCTATACCTT,1.17

row,Sequence,switch fluorescence ratio
1,TCTATATA,0.957
2,TCTATATGCG,0.995
3,TCTATCACCT,1.15
4,TCTATCCGG,0.996
5,TCTATTGGAA,0.983
6,TCTCAAAGTC,1.06
7,TCTCAATAGC,1.22
8,TCTCACAGAG,1.02
9,TCTCACGCAC,2.38
10,TCTCACGGGA,1.13
11,TCTCACTAAC,1.16
12,TCTCAGCCGT,0.969
13,TCTCAGGGTT,1.04
14,TCTCATAG,1.01
15,TCTCCAAAA,2.48
16,TCTCCGTCAG,4.84
17,TCTCCTGTTC,1.07
18,TCTCGAGGCT,1.06
19,TCTCGGAGTT,1.03
20,TCTCGGGTCC,1.02
21,TCTCTTATAG,0.961
22,TCTCTTTTGT,0.97
23,TCTGAAGAG,0.984
24,TCTGACCCAT,1.06
25,TCTGACGGAG,1.06
26,TCTGAGACAG,1.01

row,Sequence,switch fluorescence ratio
1,TCTGAGCAGG,1.23
2,TCTGAGCCGG,1.02
3,TCTGAGCCGT,1.01
4,TCTGAGTACA,1.02
5,TCTGATAGGC,1.05
6,TCTGATGCAT,0.949
7,TCTGATGCTC,1.41
8,TCTGATGGTA,1.05
9,TCTGCCAGTA,0.989
10,TCTGGAACAA,1.61
11,TCTGGCTCAC,1.03
12,TCTGGCTGCG,0.989
13,TCTGGGCAGA,1.04
14,TCTGGGTATC,0.964
15,TCTGGTCCTC,1.01
16,TCTGGTCTAC,1.06
17,TCTGTAGGGA,1.75
18,TCTGTCATCA,1.01
19,TCTGTGATCA,1.03
